Publication PMC6451091
The list shows a part of the results. For part of these data: At the low end of the ranking the order means little. For part of these data: Measured with an extract: partners may take part in the binding.

How the values were obtained:
Conditions in all cases: 20 mM HEPES pH 7.9, 100 mM NaCl, 1 mM DTT, 0.2 mg/mL BSA, 0.02% Triton X-100, 2% milk, 0.4 mg/mL salmon testes DNA; 1 h; temperature not stated; high values mean tight binding; double strand, one strand shown; sequences stand for … in GCCTAGCAC…GTGCTAGGTCTTGATTCGCTTGACGCTGCTG
PU.1 (IVT) = PU.1 (IVT) (UniProt P17947); assay: protein-binding microarray (PBM)
[1] = target: PU.1 (endogenous, THP-1 nuclear extract) (UniProt P17947); assay: nuclear extract protein-binding microarray (nextPBM)
[2] = target: T1, FLI1 (endogenous, THP-1 nuclear extract) (UniProt Q01543); assay: as above
T1 sequence: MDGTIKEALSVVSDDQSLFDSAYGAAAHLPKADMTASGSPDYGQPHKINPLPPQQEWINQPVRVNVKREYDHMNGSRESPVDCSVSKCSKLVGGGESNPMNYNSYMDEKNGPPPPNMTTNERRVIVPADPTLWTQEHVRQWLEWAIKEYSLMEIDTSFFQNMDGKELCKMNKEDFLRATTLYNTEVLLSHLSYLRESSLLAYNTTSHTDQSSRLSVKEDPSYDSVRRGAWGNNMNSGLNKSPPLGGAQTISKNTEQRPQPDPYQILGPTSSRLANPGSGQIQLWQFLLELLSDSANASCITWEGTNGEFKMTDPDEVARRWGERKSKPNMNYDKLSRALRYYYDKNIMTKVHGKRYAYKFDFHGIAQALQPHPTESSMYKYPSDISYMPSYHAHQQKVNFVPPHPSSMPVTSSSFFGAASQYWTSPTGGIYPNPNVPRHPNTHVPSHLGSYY

Sequence | binding signal (PU.1 (IVT)) [z-score] | binding signal [1] [z-score] | binding signal [2] [z-score]
ACTGGGAGGAAGTCACAGGG | 2.56 | 2.82 | 2.08
GGATAAAGGAAGTCAGGAAG | 2.32 | 2.68 | 2.61
AGTATAAGGAAGTGTAGAAA | 3.92 | 3.51 | 1.95
GTTTTGAGGAAGTGGGAAAA | 6.51 | 6.49 | 3.21
GGAAGAAGGAAGTGGGGGCC | 3.66 | 3.91 | 2.16
GAGAAGGGGAAGTCCCAGAA | 4.88 | 5.45 | 2.16
